# Laboratory results reported in the supplement of paper PMC8728848.
# The other results are listed elsewhere or left out.
# B1: DrGal9 (Danio rerio) (protein)
# chain: MAFYQQPPYYNPRIPFSGPIQGGLQDGKSIIISGRVLPGANRFHVNLQCGSHSEANVALHFNPRYEDTDYVVNNSYLNRTWGSEERKYESPFAQGQTFTLQILVAQDKYKISTNGRHFMDYKHRIPFTQVDTVAVEGMVEVNSVAFQNPAGFIPPQAGYAPQYAVPPGCGFPAFPSAPNYTIPHKTVMNGGLHPGKNIVINGVVNPNAKSIIFNLCYRSGIAFHYNPRFDENVVVRNTNQMEKWGAEERFGGLPFHKGQPFQVTISCNPQHYNVFVNGKQEHTYKHRYTKLNDIDILEICGDLQLTSVQA
# Assays:
# Test in all cases: glycan array binding signal (z-score within array); higher = stronger binding
# Details in all cases: glycan notation: IUPAC condensed, linker removed
# [1] = target: GlcNAc(a1-6)Gal(b1-4)GlcNAc
# Summary of the method: (§1)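 From the Consortium for Functional Glycomics database, 3228 arrays were curated, keeping only those whose protein sequence was available. Binding is given as a within-array Z-score averaged across arrays sharing a protein sequence and across linkers. Negative Z-scores can be read as non-binding.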
# [2] = target: GlcNAc(b1-2)Gal(b1-3)GalNAc
# Summary of the method: as §1
# [3] = target: GlcNAc(b1-2)Man(a1-3)[GlcNAc(b1-2)Man(a1-6)]Man(b1-4)GlcNAc(b1-4)GlcNAc
# Summary of the method: as §1
# [4] = target: GlcNAc(b1-2)Man(a1-3)[GlcNAc(b1-2)Man(a1-6)]Man(b1-4)GlcNAc(b1-4)[Fuc(a1-6)]GlcNAc
# Summary of the method: as §1
# [5] = target: GlcNAc(b1-2)Man(a1-3)[GlcNAc(b1-4)][GlcNAc(b1-2)Man(a1-6)]Man(b1-4)GlcNAc(b1-4)GlcNAc
# Summary of the method: as §1
# [6] = target: GlcNAc(b1-2)Man(a1-3)[GlcNAc(b1-4)][GlcNAc(b1-2)Man(a1-6)]Man(b1-4)GlcNAc(b1-4)[Fuc(a1-6)]GlcNAc
# Summary of the method: as §1
# [7] = target: GlcNAc(b1-2)[GlcNAc(b1-4)]Man(a1-3)[GlcNAc(b1-2)Man(a1-6)]Man(b1-4)GlcNAc(b1-4)GlcNAc
# Summary of the method: as §1
# [8] = target: GlcNAc(b1-2)[GlcNAc(b1-4)]Man(a1-3)[GlcNAc(b1-4)][GlcNAc(b1-2)Man(a1-6)]Man(b1-4)GlcNAc(b1-4)GlcNAc
# Summary of the method: as §1
# [9] = target: GlcNAc(b1-2)[GlcNAc(b1-4)]Man(a1-3)[GlcNAc(b1-4)][GlcNAc(b1-2)[GlcNAc(b1-6)]Man(a1-6)]Man(b1-4)GlcNAc(b1-4)GlcNAc
# Summary of the method: as §1
# [10] = target: GlcNAc(b1-2)[GlcNAc(b1-4)]Man(a1-3)[GlcNAc(b1-4)][GlcNAc(b1-2)[GlcNAc(b1-6)]Man(a1-6)]Man(b1-4)GlcNAc(b1-4)[Fuc(a1-6)]GlcNAc
# Summary of the method: as §1
# [11] = target: GlcNAc(b1-2)[GlcNAc(b1-6)]Man(a1-6)[GlcNAc(b1-2)Man(a1-3)]Man(b1-4)GlcNAc(b1-4)GlcNAc
# Summary of the method: as §1
# [12] = target: GlcNAc(b1-2)[GlcNAc(b1-6)]Man(a1-6)[GlcNAc(b1-2)Man(a1-3)]Man(b1-4)GlcNAc(b1-4)[Fuc(a1-6)]GlcNAc
# Summary of the method: as §1
# [13] = target: GlcNAc(b1-2)[GlcNAc(b1-6)]Man(a1-6)[GlcNAc(b1-4)][GlcNAc(b1-2)Man(a1-3)]Man(b1-4)GlcNAc(b1-4)GlcNAc
# Summary of the method: as §1
# [14] = target: GlcNAc(b1-3)Fuc
# Summary of the method: as §1
# [15] = target: GlcNAc(b1-3)Gal
# Summary of the method: as §1
# [16] = target: GlcNAc(b1-3)Gal(b1-3)GalNAc
# Summary of the method: as §1
# [17] = target: GlcNAc(b1-3)Gal(b1-4)Glc
# Summary of the method: as §1
# [18] = target: GlcNAc(b1-3)Gal(b1-4)GlcNAc
# Summary of the method: as §1
# [19] = target: GlcNAc(b1-3)Gal(b1-4)GlcNAc(b1-2)Man(a1-3)[GlcNAc(b1-3)Gal(b1-4)GlcNAc(b1-2)Man(a1-6)]Man(b1-4)GlcNAc(b1-4)GlcNAc
# Summary of the method: as §1
# [20] = target: GlcNAc(b1-3)Gal(b1-4)GlcNAc(b1-2)Man(a1-3)[GlcNAc(b1-3)Gal(b1-4)GlcNAc(b1-2)Man(a1-6)]Man(b1-4)GlcNAc(b1-4)[Fuc(a1-6)]GlcNAc
# Summary of the method: as §1
# [21] = target: GlcNAc(b1-3)Gal(b1-4)GlcNAc(b1-2)[GlcNAc(b1-3)Gal(b1-4)GlcNAc(b1-6)]Man(a1-6)[GlcNAc(b1-3)Gal(b1-4)GlcNAc(b1-2)Man(a1-3)]Man(b1-4)GlcNAc(b1-4)GlcNAc
# Summary of the method: as §1
# [22] = target: GlcNAc(b1-3)Gal(b1-4)GlcNAc(b1-3)Gal(b1-4)GlcNAc
# Summary of the method: as §1
# [23] = target: GlcNAc(b1-3)Gal(b1-4)GlcNAc(b1-3)Gal(b1-4)GlcNAc(b1-2)Man(a1-3)[GlcNAc(b1-3)Gal(b1-4)GlcNAc(b1-3)Gal(b1-4)GlcNAc(b1-2)Man(a1-6)]Man(b1-4)GlcNAc(b1-4)GlcNAc
# Summary of the method: as §1
# [24] = target: GlcNAc(b1-3)Gal(b1-4)GlcNAc(b1-3)Gal(b1-4)GlcNAc(b1-2)Man(a1-3)[GlcNAc(b1-3)Gal(b1-4)GlcNAc(b1-3)Gal(b1-4)GlcNAc(b1-2)Man(a1-6)]Man(b1-4)GlcNAc(b1-4)[Fuc(a1-6)]GlcNAc
# Summary of the method: as §1
# [25] = target: GlcNAc(b1-3)Gal(b1-4)GlcNAc(b1-3)Gal(b1-4)GlcNAc(b1-2)[GlcNAc(b1-3)Gal(b1-4)GlcNAc(b1-3)Gal(b1-4)GlcNAc(b1-6)]Man(a1-6)[GlcNAc(b1-3)Gal(b1-4)GlcNAc(b1-3)Gal(b1-4)GlcNAc(b1-2)Man(a1-3)]Man(b1-4)GlcNAc(b1-4)[Fuc(a1-6)]GlcNAc
# Summary of the method: as §1
# [26] = target: GlcNAc(b1-3)Gal(b1-4)GlcNAc(b1-3)Gal(b1-4)GlcNAc(b1-3)Gal(b1-4)GlcNAc(b1-2)Man(a1-3)[GlcNAc(b1-3)Gal(b1-4)GlcNAc(b1-3)Gal(b1-4)GlcNAc(b1-3)Gal(b1-4)GlcNAc(b1-2)Man(a1-6)]Man(b1-4)GlcNAc(b1-4)GlcNAc
# Summary of the method: as §1
# [27] = target: GlcNAc(b1-3)Gal(b1-4)GlcNAc(b1-3)Gal(b1-4)GlcNAc(b1-3)Gal(b1-4)GlcNAc(b1-2)Man(a1-3)[GlcNAc(b1-3)Gal(b1-4)GlcNAc(b1-3)Gal(b1-4)GlcNAc(b1-3)Gal(b1-4)GlcNAc(b1-2)Man(a1-6)]Man(b1-4)GlcNAc(b1-4)[Fuc(a1-6)]GlcNAc
# Summary of the method: as §1
# [28] = target: GlcNAc(b1-3)Gal(b1-4)GlcNAc(b1-3)Gal(b1-4)GlcNAc(b1-3)Gal(b1-4)GlcNAc(b1-2)[GlcNAc(b1-3)Gal(b1-4)GlcNAc(b1-3)Gal(b1-4)GlcNAc(b1-3)Gal(b1-4)GlcNAc(b1-6)]Man(a1-6)[GlcNAc(b1-3)Gal(b1-4)GlcNAc(b1-3)Gal(b1-4)GlcNAc(b1-3)Gal(b1-4)GlcNAc(b1-2)Man(a1-3)]Man(b1-4)GlcNAc(b1-4)[Fuc(a1-6)]GlcNAc
# Summary of the method: as §1
# [29] = target: GlcNAc(b1-3)Gal(b1-4)GlcNAc(b1-3)Gal(b1-4)GlcNAc(b1-3)Gal(b1-4)GlcNAc(b1-3)Gal(b1-4)GlcNAc(b1-2)Man(a1-3)[GlcNAc(b1-3)Gal(b1-4)GlcNAc(b1-3)Gal(b1-4)GlcNAc(b1-3)Gal(b1-4)GlcNAc(b1-3)Gal(b1-4)GlcNAc(b1-2)Man(a1-6)]Man(b1-4)GlcNAc(b1-4)GlcNAc
# Summary of the method: as §1
# [30] = target: GlcNAc(b1-3)Gal(b1-4)GlcNAc(b1-3)Gal(b1-4)GlcNAc(b1-3)Gal(b1-4)GlcNAc(b1-3)Gal(b1-4)GlcNAc(b1-2)Man(a1-3)[GlcNAc(b1-3)Gal(b1-4)GlcNAc(b1-3)Gal(b1-4)GlcNAc(b1-3)Gal(b1-4)GlcNAc(b1-3)Gal(b1-4)GlcNAc(b1-2)Man(a1-6)]Man(b1-4)GlcNAc(b1-4)[Fuc(a1-6)]GlcNAc
# Summary of the method: as §1
# [31] = target: GlcNAc(b1-3)Gal(b1-4)GlcNAc(b1-3)Gal(b1-4)GlcNAc(b1-3)Gal(b1-4)GlcNAc(b1-3)Gal(b1-4)GlcNAc(b1-2)[GlcNAc(b1-3)Gal(b1-4)GlcNAc(b1-3)Gal(b1-4)GlcNAc(b1-3)Gal(b1-4)GlcNAc(b1-3)Gal(b1-4)GlcNAc(b1-6)]Man(a1-6)[GlcNAc(b1-3)Gal(b1-4)GlcNAc(b1-3)Gal(b1-4)GlcNAc(b1-3)Gal(b1-4)GlcNAc(b1-3)Gal(b1-4)GlcNAc(b1-2)Man(a1-3)]Man(b1-4)GlcNAc(b1-4)[Fuc(a1-6)]GlcNAc
# Summary of the method: as §1
# [32] = target: GlcNAc(b1-3)Gal(b1-4)GlcNAc(b1-3)Gal(b1-4)GlcNAc(b1-3)GalNAc
# Summary of the method: as §1
# [33] = target: GlcNAc(b1-3)Gal(b1-4)GlcNAc(b1-3)GalNAc
# Summary of the method: as §1
# [34] = target: GlcNAc(b1-3)Gal(b1-4)GlcNAc(b1-3)[GlcNAc(b1-3)Gal(b1-4)GlcNAc(b1-3)]GalNAc
# Summary of the method: as §1
# [35] = target: GlcNAc(b1-3)Gal(b1-4)GlcNAc(b1-6)[Gal(b1-3)]GalNAc
# Summary of the method: as §1
# [36] = target: GlcNAc(b1-3)Gal(b1-4)GlcNAc(b1-6)[GlcNAc(b1-3)Gal(b1-3)]GalNAc
# Summary of the method: as §1
# [37] = target: GlcNAc(b1-3)Gal(b1-4)GlcNAc(b1-6)[GlcNAc(b1-3)]Gal(b1-4)GlcNAc
# Summary of the method: as §1
binder,measurement,setting,value
B1,glycan array binding signal (z-score),[1],-0.386
same,glycan array binding signal (z-score),[2],-0.35
same,glycan array binding signal (z-score),[3],-0.404
same,glycan array binding signal (z-score),[4],-0.376
same,glycan array binding signal (z-score),[5],-0.412
same,glycan array binding signal (z-score),[6],-0.41
same,glycan array binding signal (z-score),[7],-0.39
same,glycan array binding signal (z-score),[8],-0.39
same,glycan array binding signal (z-score),[9],-0.399
same,glycan array binding signal (z-score),[10],-0.386
same,glycan array binding signal (z-score),[11],-0.386
same,glycan array binding signal (z-score),[12],-0.367
same,glycan array binding signal (z-score),[13],-0.402
same,glycan array binding signal (z-score),[14],-0.373
same,glycan array binding signal (z-score),[15],-0.41
same,glycan array binding signal (z-score),[16],-0.365
same,glycan array binding signal (z-score),[17],-0.01
same,glycan array binding signal (z-score),[18],-0.219
same,glycan array binding signal (z-score),[19],1.73
same,glycan array binding signal (z-score),[20],3.01
same,glycan array binding signal (z-score),[21],1.55
same,glycan array binding signal (z-score),[22],0.059
same,glycan array binding signal (z-score),[23],1.17
same,glycan array binding signal (z-score),[24],3.13
same,glycan array binding signal (z-score),[25],1.24
same,glycan array binding signal (z-score),[26],2.71
same,glycan array binding signal (z-score),[27],2.48
same,glycan array binding signal (z-score),[28],1.84
same,glycan array binding signal (z-score),[29],2.55
same,glycan array binding signal (z-score),[30],2.18
same,glycan array binding signal (z-score),[31],2.39
same,glycan array binding signal (z-score),[32],0.226
same,glycan array binding signal (z-score),[33],-0.008
same,glycan array binding signal (z-score),[34],0.363
same,glycan array binding signal (z-score),[35],0.098
same,glycan array binding signal (z-score),[36],-0.233
same,glycan array binding signal (z-score),[37],0.084
